Laboratory results: PubChem BioAssay AID651820 (National Center for Advancing Translational Sciences (NCATS), 2012)
About 12,000 (3.5%) of roughly 340,000 compounds were called active. The inconclusive results got no clear call from the source; some entries with a clear call stand among them for comparison. Calls come from the whole dose curve; as a rule, active = well fitted inhibition curve with a large enough effect; inconclusive = small, poorly fitted or top-dose-only effect, or another doubt; inactive = no such curve, though single readings can be large or run the other way. No potency is given beside an inconclusive call; the fits are too rough.

Assay: qHTS Assay for Inhibitors of Hepatitis C Virus (HCV)
Conditions: Huh7.5.1 HCVcc-Cre (HCVcc is cell-culture hepatitis C virus) infection, luciferase reporter, 44 h; activity change, negative = inhibition: at 41.8 µM (top of the series) unless noted
Summary of the method: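 Whole-lifecycle infectious HCVcc-Cre system; cells 1,000/well, compound then virus (~0.5 moi) added 4 h after plating, 44 h culture. Luciferase read 15 sec following 15 min substrate incubation, room temp.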
% is set by controls: 0 for no effect and ±100 for the full control effect; potency is the fitted concentration of half-maximal effect; tags give direction and shape of the fitted curve.

With `CCOC(=O)C1(CCOc2ccccc2)CCN(Cc2ccc3c(c2)OCCO3)CC1` as the compound, how does the Potency read?
Its Potency is inconclusive [inhibitor, single point].

Which Potency does the source give for `CCN1C(=O)[C@H]2[C@H]3CN=C(SCc4ccc(C(=O)OC)cc4)N3[C@@](CC)(C(=O)OC)[C@H]2C1=O` here?
The Potency was inconclusive [inhibitor, single point].

Which “activity change, negative = inhibition” value does the source give for `O=C1c2ccccc2C(=O)C1c1ccccc1F` here?
The value was inactive: -1.17%.

With `Cn1c(-c2ccc(Cl)cc2)ccc(C#N)c1=O` as the compound, how does the Potency read?
Its Potency is inconclusive [inhibitor, single point].

Which Potency does the source give for `CC(C)(C)NC(=O)c1cccc(NC(=O)c2ccc(NC(=O)c3ccco3)cc2)c1` here?
The Potency was active: 2.51 µM.

Which Potency does the source give for `c1cc2c(cc1C1=Nn3c(nnc3C3CCCCC3)SC1)OCO2` here?
The Potency was inconclusive [inhibitor, single point].

Which Potency does the source give for `COc1ccc(OC)c(-c2cc(C(=O)NCc3cccs3)no2)c1` here?
The Potency was inconclusive [inhibitor, single point].

With `CC(O/N=C(\N)c1ccccc1)C(=O)Nc1cccc(C(F)(F)F)c1` (stereo not given) as the compound, how does the Potency read?
The Potency was inconclusive [inhibitor, single point].

With `CCSC(=O)N1c2ccc(OC)cc2C=CC1C#N` (stereo not given) as the compound, how does the Potency read?
Its Potency is inconclusive [inhibitor, full curve, poor fit].

Which Potency does the source give for `Cc1cc(S(=O)(=O)N2CCOCC2)c(C)s1` here?
The Potency was inconclusive [inhibitor, single point].

Which Potency does the source give for `COc1ccc2c(Cl)c(C(N)=O)sc2c1` here?
The Potency was inconclusive [inhibitor, single point].

Which Potency does the source give for `Cc1[nH]c(=O)c(C(=O)/C=C/c2ccccc2F)c2c1CCCC2` here?
Its Potency is active: 2.51 µM.

With `CC(C)Cn1c(SCC(=O)N2CCCc3ccccc32)nc2ccccc2c1=O` as the compound, how does the Potency read?
The Potency was inconclusive [inhibitor, partial curve, poor fit].

For `Cc1noc(C)c1S(=O)(=O)N1CCCC1C(=O)O` (stereo not given), which “activity change, negative = inhibition” value is on record?
The value was inactive: -1.14%.

For `COc1cccc(NC(=S)NCCC(c2ccccc2)c2ccccc2)c1`, which Potency is on record?
The Potency was inconclusive [inhibitor, single point].

For `O=C(O)/C=C/c1cn(-c2ccccc2)nc1-c1ccccc1`, which “activity change, negative = inhibition” value is on record?
The value was inactive: 12.5%.

Which Potency does the source give for `COc1ccc(S(=O)(=O)/N=C2\C=C(NS(=O)(=O)c3ccccc3)C(=O)c3ccccc32)cc1` here?
Its Potency is inconclusive [inhibitor, single point].

With `Cc1ccc(-c2csc3nc(-c4ccncc4)[nH]c(=O)c23)cc1` as the compound, how does the Potency read?
Its Potency is active: 5.62 µM.

For `Cc1cnc2ncc3sccc3c2c1`, which Potency is on record?
Its Potency is inconclusive [inhibitor, single point].

For `COc1ccc(NS(=O)(=O)c2cc(NC(=O)c3cnc(C)cn3)ccc2N2CCCCC2)cc1`, which Potency is on record?
The Potency was inconclusive [inhibitor, single point].
